Values marked as one replicate rest on one cluster of the flow cell; about a third of the high ones do not repeat.
Each sequence was assayed on ATP (assay: switch fluorescence ratio, 500 uM ATP over buffer (Cy3 cluster intensity, sum of 5 cycles each) (fold (ratio)); higher = stronger signal-on switching upon ATP binding; sequences stand for … in TCGTCGGCAGCGTCAGATGTGTATAAGAGACAGTTTTTTTTTTTTTTTTTTTTTTTTT…TC). Settings: aptamer strand: ATP DNA aptamer (quencher-CACCTGGGGGAGTATTGCGGAGGAAGG + anchor), 100 nM annealed; ATP concentration: 500 uM; one replicate.
In short: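 After annealing to 100 nM quencher-labelled ATP aptamer, Cy3-labelled switching-strand clusters on a modified Illumina MiSeq flow-cell were imaged in selection buffer. A second image followed after 15 min with 500 uM ATP at 22 °C, and five such buffer/ATP cycles were done, each separated by NaOH stripping and re-annealing. The fluorescence ratio, averaged per switch-domain sequence, is summed target-cycle over summed buffer-cycle Cy3 intensity per cluster, with clusters outside 100-1000 RFU excluded.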
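Note: ATP exposure 15 min at 22 °C before imaging.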

| Sequence | switch fluorescence ratio |
| --- | --- |
| ATATCATCCC | 1.09 |
| ATATCCGCAG | 3.06 |
| ATATCCGTGC | 1.11 |
| ATATCCTGTT | 1.01 |
| ATATCCTTTG | 0.967 |
| ATATCGGGAG | 1.03 |
| ATATCGTCAT | 0.933 |
| ATATCTCATA | 0.971 |
| ATATGATGCT | 0.996 |
| ATATGCACGC | 1.06 |
| ATATGCATCG | 1.05 |
| ATATGGAGGG | 1.03 |
| ATATGGATAT | 1 |
| ATATGGCCAC | 0.961 |
| ATATGGCCGA | 1.03 |
| ATATGTATA | 0.996 |
| ATATGTATTG | 1 |
| ATATGTGCGC | 0.98 |
| ATATGTTGGC | 0.981 |
| ATATTAATA | 1.01 |
| ATATTCACTT | 1 |
| ATATTCATCG | 1.05 |
| ATATTGCCTT | 0.978 |
| ATATTGCGCT | 1 |
| ATATTTTGGT | 0.992 |

| Sequence | switch fluorescence ratio |
| --- | --- |
| ATCAAAAGCA | 1.02 |
| ATCAAATCGC | 0.955 |
| ATCAAATTGG | 1.06 |
| ATCAACAGAC | 1.03 |
| ATCAACCAGC | 0.992 |
| ATCAACCGAG | 1.13 |
| ATCAAGGGAG | 0.958 |
| ATCAATGGTT | 0.982 |
| ATCACAACCT | 1.71 |
| ATCACACCGG | 1.05 |
| ATCACACCTT | 1.19 |
| ATCACGAAAG | 1.01 |
| ATCACGACTT | 0.994 |
| ATCACGGGTA | 1.02 |
| ATCACTGTTG | 1.04 |
| ATCAGATCTA | 0.993 |
| ATCAGCCGCA | 1.09 |
| ATCAGCGGGG | 0.981 |
| ATCAGCTCGA | 1.04 |
| ATCAGCTTAT | 2.5 |
| ATCAGTAGGT | 0.988 |
| ATCAGTCGTA | 1.04 |
| ATCAGTGCGT | 1.02 |
| ATCATAAACC | 1.12 |
| ATCATAAGTG | 1.07 |

| Sequence | switch fluorescence ratio |
| --- | --- |
| ATCATATTAA | 0.986 |
| ATCATCTGCA | 1.24 |
| ATCATCTTGA | 0.999 |
| ATCATGCTGG | 0.981 |
| ATCATTCA | 0.987 |
| ATCATTGGAA | 0.966 |
| ATCCACTGGT | 1.04 |
| ATCCAGAGGG | 1.01 |
| ATCCAGGGTG | 2.86 |
| ATCCAGTCAT | 1.02 |
| ATCCATCCGT | 1.03 |
| ATCCATCGCC | 1.07 |
| ATCCATGTC | 0.882 |
| ATCCATTTCT | 0.986 |
| ATCCCAAAGG | 1.11 |
| ATCCCCGTCC | 1.25 |
| ATCCCCGTCG | 1 |
| ATCCCTTACC | 1.21 |
| ATCCGCGTCT | 1.13 |
| ATCCGGGTTT | 0.982 |
| ATCCTATCCG | 1 |
| ATCCTCCAA | 1.32 |
| ATCCTCGAAT | 1.01 |
| ATCCTGGGTC | 1.06 |
| ATCCTGTCGG | 0.967 |

| Sequence | switch fluorescence ratio |
| --- | --- |
| ATCCTTCAG | 1.05 |
| ATCCTTCGTG | 1.29 |
| ATCCTTGCCC | 1.15 |
| ATCGAATGGC | 1.02 |
| ATCGACCACG | 1.03 |
| ATCGACTAGG | 0.996 |
| ATCGAGGA | 0.964 |
| ATCGAGTTAA | 0.99 |
| ATCGAGTTTC | 1 |
| ATCGAGTTTT | 0.982 |
| ATCGCAACGT | 1.02 |
| ATCGCAGCAC | 3.97 |
| ATCGCAGCGT | 0.977 |
| ATCGCAGTAT | 1.13 |
| ATCGCATGCA | 1.03 |
| ATCGCATTTG | 1 |
| ATCGCGTCAA | 1.06 |
| ATCGCTAGGT | 1.04 |
| ATCGCTTAGT | 1.01 |
| ATCGCTTGTG | 0.974 |
| ATCGGAAAGA | 1.02 |
| ATCGGACTCG | 1.02 |
| ATCGGATAGT | 1.02 |
| ATCGGGAGTG | 0.954 |
| ATCGGGTGTT | 1.06 |
